Results on 1 molecule are retold here after patent US20210403534A1 (R PHARM OVERSEAS, published 2021).

Assay [1] has as its target T1, IL-1β IL-1F2, M. Rhesus recombinant, E. coli-derived, Ala117-Ser269 (M. Rhesus, UniProt P48090 117-269).
T1 sequence (looked up): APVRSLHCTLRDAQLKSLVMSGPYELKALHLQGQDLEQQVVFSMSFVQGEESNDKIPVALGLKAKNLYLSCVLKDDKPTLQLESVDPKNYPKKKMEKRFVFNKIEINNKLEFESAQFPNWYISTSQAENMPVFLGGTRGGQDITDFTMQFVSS
Put plainly: cell-based or functional assay.

The target of assay [2] is T2, IL-1β/IL-1F2, Human recombinant, E. coli-derived, Ala117-Ser269 (human, UniProt P01584 117-269). The experiment in a line: cell-based or functional assay.
The target in assay [3] is T3, IL-1β/IL-1F2, Mouse recombinant, E. coli-derived, Vla118-Ser269 (mouse, UniProt P10749 118-269).
T3 sequence (looked up): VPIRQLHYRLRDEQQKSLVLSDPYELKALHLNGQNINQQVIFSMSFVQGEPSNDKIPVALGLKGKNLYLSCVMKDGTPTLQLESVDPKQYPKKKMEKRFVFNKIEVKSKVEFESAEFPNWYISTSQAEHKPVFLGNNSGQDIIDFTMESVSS
Put plainly: cell-based or functional assay.

The target of assay [4] is T2, IL-1β/IL-1F2, Human recombinant, E. …. Put plainly: SPR (Biacore T200), heterodimer captured by anti-human IgG on CM5 chip, IL-1β as analyte; steady-state analysis, 1:1 Langmuir model. The method, then: 3. Human IL-1β/IL-1F2 were used at the concentrations specified in Table 2 where concentration of 3.676 nM was run two time independently as an internal control for the instrument reproducibility;
As an alternative way for Kd calculation, Steady-State data analysis using 1:1 Langmuir binding model was used. According to this method, Kd is calculated from series of plots of steady-state analyte binding levels (Req) against concentration.
For orientation: In SPR one partner is held on a chip, and binding of the other changes the refractive index at the surface.

The term Kd denotes the free concentration of one partner at which half of the binding sites on the other are occupied at equilibrium, for simple one-to-one binding.

Values joined by “and” are separate entries in the source; they are usually repeats but may differ in a detail not shown here. Equal entries are not always repeated.

B1: IL1R-FcV-RAcP-FcII heterodimer (Fc fusion)
chain 1: DKCKEREEKIILVSSANEIDVRPCPLNPNEHKGTITWYKDDSKTPVSTEQASRIHQHKEKLWFVPAKVEDSGHYYCVVRNSSYCLRIKISAKFVENEPNLCYNAQAIFKQKLPVAGDGGLVCPYMEFFKNENNELPKLQWYKDCKPLLLDNIHFSGVKDRLIVMNVAEKHRGNYTCHASYTYLGKQYPITRVIEFITLEENKPTRPVIVSPANETMEVDLGSQIQLICNVTGQLSDIAYWKWNGSVIDEDDPVLGEDYYSVENPANKRRSTLITVLNISEIESRFYKHPFTCFAKNTHGIDAAYIQLIYPVTNGSGGG[human IgG1 Fc with Y349C T366S L368A F405K Y407V (EU numbers) not shown]
chain 2: SERCDDWGLDTMRQIQVFEDEPARIKCPLFEHFLKFNYSTAHSAGLTLIWYWTRQDRDLEEPINFRLPENRISKEKDVLWFRPTLLNDTGNYTCMLRNTTYCSKVAFPLEVVQKDSCFNSPMKLPVHKLYIEYGIQRITCPNVDGYFPSSVKPTITWYMGCYKIQNFNNVIPEGMNLSFLIALISNNGNYTCVVTYPENGRTFHLTRTLTVKVVGSPKNAVPPVIHSPNDHVVYEKEPGEELLIPCTVYFSFLMDSRNEVWWTIDGKKPDDITIDVTINESISHSRTEDETRTQILSIKKVTSEDLKRSYVCHARSAKGEVAKAAKVKQKVPAPRYTVGSGGGDKTHTCPPCPAPELLGGPSVFLFPPKPKDTLMISRTPEVTCVVVDVSHEDPEVKFNWYVDGVEVHNAKTKPREEQYNSTYRVVSVLTVLHQDWLNGKEYKCKVSNKALPAPIEKTISKAKGQPREPQVYTLPPCRDELTKNQVSLWCLVKGFYPSDIAVEWESNGQPENNYKTTPPVLDSDGSFFLYSALTVDKSRWQQGNVFSCSVMHEALHNHYTQKSLSLSPG
notes: also called hIL1-R1-hIgG1-Fc polypeptide / hIL-1RAcP-hIgG1-Fc polypeptide heterodimeric protein assembly; hIL1-R1-hIgG1-Fc-II/IL-1RAcP-hIgG1-Fc-V
Turning to B1, the “IC50 of IL-1β/IL-1F2-induced IL-6 secretion, MRC5 cells” value in assay [1] was 0.38 ng/ml and 1.9 pM; in assay [2], 0.22 ng/ml and 1.1 pM. Moreover, the “IC50 of IL-1β/IL-1F2-induced IL-6 secretion, MEFs” value in assay [2] was 0.19 ng/ml and 0.95 pM; in assay [3], > 210 ng/ml and > 1050 pM. Also, the equilibrium dissociation constant (Kd) in assay [4] worked out at 9.63 pM.
